{
  "source": "patent US20260263442A1",
  "about": "“METHOD FOR TREATING L-DOPA-INDUCED DYSKINESIA USING BEFIRADOL” (Neurolixis, Inc., priority 2023, published 2026)",
  "key": {"[1]": {"system": "L-DOPA-induced dyskinesia (LID) in Parkinson's disease patients", "experiment": "PD Home Dyskinesia eDiary, Good ON Time, Phase 2a study", "assay_type": "in vivo, human", "conditions": "baseline, n=15"}, "[2]": {"system": "patients with moderate to severe L-DOPA-induced dyskinesia (LID) in Parkinson's disease", "design": "species or system human", "conditions": "in vivo"}, "[3]": {"system": "patients with moderate to severe L-DOPA-induced dyskinesia (LID) in Parkinson's disease", "design": "species or system human", "conditions": "in vivo", "remark": "listed apart in the source"}, "[4]": {"system": "patients with moderate to severe L-DOPA-induced dyskinesia (LID) in Parkinson's disease", "experiment": "Columbia Suicide Severity Rating Scale (C-SSRS), Phase 2a study", "design": "species or system human", "conditions": "in vivo"}, "[5]": {"system": "patients with moderate to severe L-DOPA-induced dyskinesia (LID) in Parkinson's disease", "design": "species or system human", "conditions": "in vivo", "remark": "listed apart in the source"}},
  "data": [
    {"smiles": "Cc1ccc(CNCC2(F)CCN(C(=O)c3ccc(F)c(Cl)c3)CC2)nc1", "note": "[NLX-112]", "values": [
      {"measurement": "Proportion of good ON time", "setting": "[1]", "result": 57.6, "unit": "%"},
      {"measurement": "Physical examination findings, changes from baseline", "setting": "[2]", "result": "no clinically significant changes from baseline"},
      {"measurement": "Laboratory assessments, changes", "setting": "[3]", "result": "no clinically significant changes in any clinical chemistry, hematology, urinalysis, or coagulation parameters"},
      {"measurement": "Suicidal ideation/behavior", "setting": "[4]", "result": "no indication of increased suicidal ideation/behavior"},
      {"measurement": "ECG assessments, changes", "setting": "[5]", "result": "no changes in HR, PR, QRS, QT, or QTc measures"}
    ]}
  ]
}
